This note sets out measurements from PubChem BioAssay AID360 (National Center for Advancing Translational Sciences (NCATS), 2006).

In all, about 48,000 compounds went through this assay and about 550 (1.1%) were called active. About 4% were inconclusive and are not listed. No stated cut-off is given here; in the data, active means potency below about 15 µM; inconclusive means mostly about 16 µM to 33 µM; inactive means weaker than that. This is one part of the list.
Potency means the concentration at half of the fitted maximal effect.

The experiment has as its target Lysosomal acid glucosylceramidase (Homo sapiens) (UniProt P04062). As to the kind of experiment: Glucocerebrosidase.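 Further: the screen sought inhibitors.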 The note with it: purified enzyme, resorufin glucoside fluorescence (screen aimed at inhibitors), 20 min; series mostly up to 77 µM. Put shortly: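 Compounds titrated against 0.2 nM normal enzyme, 30 uM resorufin beta-D-glucopyranoside substrate, citrate/phosphate buffer with taurocholate and tween-20, pH 5.9. Reaction ran 20 min at room temperature; fluorescence (Ex 548/Em 600) gave AC50.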
UniProt P04062, sequence (P04062 whole entry, looked up): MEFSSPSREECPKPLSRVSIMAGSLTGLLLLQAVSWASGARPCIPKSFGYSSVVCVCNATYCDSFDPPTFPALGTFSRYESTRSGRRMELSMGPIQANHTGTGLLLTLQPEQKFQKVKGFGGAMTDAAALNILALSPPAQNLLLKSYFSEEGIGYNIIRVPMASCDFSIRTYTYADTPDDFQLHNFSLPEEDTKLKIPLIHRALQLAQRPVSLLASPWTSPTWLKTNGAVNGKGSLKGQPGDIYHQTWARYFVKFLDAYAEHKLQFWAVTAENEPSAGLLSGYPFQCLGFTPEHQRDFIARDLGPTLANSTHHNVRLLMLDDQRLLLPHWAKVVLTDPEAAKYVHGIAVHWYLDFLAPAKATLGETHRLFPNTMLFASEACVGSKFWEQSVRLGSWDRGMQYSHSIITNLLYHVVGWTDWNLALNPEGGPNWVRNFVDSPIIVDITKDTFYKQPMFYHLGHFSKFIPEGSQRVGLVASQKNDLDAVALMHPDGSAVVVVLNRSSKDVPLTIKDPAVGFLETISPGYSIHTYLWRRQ
Consider `CCCN1CCCc2cc(CN)ccc21`, for which the Potency is inactive: > 76.9 µM.

As for `Cc1ccc(/C(O)=C2/C(=O)C(=O)N(Cc3cccnc3)C2c2ccccn2)cc1` (stereo not given), the Potency is inactive: > 76.9 µM.

For the compound `Cc1cc(NC(=O)CSc2nnc(-c3ccncc3)n2N)ccc1Br`, the Potency was inactive: > 76.9 µM.

With `Cc1c(-c2nc(N)nc(Nc3ccc(F)cc3)n2)oc2ccccc12`, the Potency was inactive: > 76.9 µM.

Regarding `CCOC(=O)N1CCN(c2nc3c(c(=O)[nH]c(=O)n3C)n2Cc2ccccc2Cl)CC1`, the Potency was inactive: > 76.9 µM.

Consider `Cn1c(Cc2csc(N)n2)nnc1SC/C=C/c1ccccc1`, for which the Potency is inactive: > 76.9 µM.

Consider `Cc1c(N(C)C(=O)C2CCCN2S(=O)(=O)c2ccccc2)c(=O)n(-c2ccccc2)n1C` (stereo not given), for which the Potency is inactive: > 76.9 µM.

Take `Cc1cc(C)cc(N2CCCn3c2nc2c3c(=O)n(CCN3CCOCC3)c(=O)n2C)c1`: the Potency was inactive: > 76.9 µM.

`CCS(=O)(=O)N1CCC(C(=O)NCc2ccco2)CC1`: the Potency is inactive: > 76.9 µM.

On to `O=C(NCc1ccccn1)Nc1ccc2c(c1)OCO2`, for which the Potency was inactive: > 76.9 µM.

Consider `Cn1c(C(C#N)/C(=N\S(=O)(=O)c2cccs2)c2ccccc2)nc2ccccc21` (stereo not given), for which the Potency is inactive: > 76.9 µM.

As to `O=C(CCN1CCCCC1c1cccnc1)NCc1ccccc1` (stereo not given), the Potency is inactive: > 76.9 µM.

Take `Cn1nc(C(=O)Nc2cccc(C(F)(F)F)c2)ccc1=O`: the Potency is inactive: > 76.9 µM.

As for `CC1CCc2nc(NC(=O)c3ccco3)sc2C1` (stereo not given), the Potency was inactive: > 76.9 µM.

As to `COc1cc2c(cc1NC(=O)CSc1nnnn1-c1ccccc1)oc1ccccc12`, the Potency was inactive: > 76.9 µM.

For the compound `Cc1ccccc1NC(=O)CN1CCC(NC(=O)Nc2ccccc2)CC1`, the Potency is inactive: > 76.9 µM.

Take `COc1ccc(NC(=O)CSc2nnc(Cc3ccccc3)o2)c(OC)c1`: the Potency was inactive: > 76.9 µM.

Regarding `Cc1ccccc1-c1nc(CS(=O)CC(=O)NCCCN(C)c2ccccc2)c(C)o1` (stereo not given), the Potency is inactive: > 76.9 µM.

On to `Cc1cccc2cc(C#N)c(SCC(=O)N3CCC(C)CC3)nc12`, for which the Potency is inactive: > 76.9 µM.

Turning to `COc1cccc(NC(=O)c2oc3ccccc3c2NC(C)=O)c1`, the Potency is inactive: > 76.9 µM.

In the case of `CC(=O)Nc1ccc(-c2nnc(SCC(=O)n3c4c(c5ccccc53)CCCC4)n2C)cc1`, the Potency was inactive: > 76.9 µM.

`O=C1CN(C(=O)c2ccccc2)c2ccccc2N1`: the Potency is inactive: > 76.9 µM.

In the case of `COc1cccc(S(=O)(=O)Nc2ccc3sc(C)nc3c2)c1`, the Potency was inactive: > 76.9 µM.

Regarding `O=C(Nc1ccccc1N1CCCCC1)c1cccc(F)c1`, the Potency was inactive: > 76.9 µM.

For `CCOC(=O)N1CCN(C(=O)Cn2nc(-c3ccc(Cl)cc3)ccc2=O)CC1`, the Potency is inactive: > 76.9 µM.
